# Reference: PubChem BioAssay AID445 (National Center for Advancing Translational Sciences (NCATS), 2006)
# The whole screen tested about 110,000 compounds, of which about 40 (0.04%) were called active. The inconclusive results got no clear call from the source; some entries with a clear call stand among them for comparison. Calls come from the whole dose curve; as a rule, active = well fitted curve in the direction sought with a large enough effect in the signal ratio (not every such curve was filed as active); inconclusive = small, poorly fitted or top-dose-only effect, or a change in a side signal; inactive = flat fitted curve, though single readings scatter; the % refers to the signal ratio. Where the call is inconclusive, the potency comes from a doubtful curve fit.
# Experiment: IkB Signaling;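 for IkBa stabilization activation: 0% = basal untreated cells and 100% = reference inhibitor full response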
# Conditions: ABC-DLBCL IkBa-CBG/CBR dual luciferase ratio (green luciferase fused to IkBa over red control in OCI-Ly3 lymphoma cells), 4 h; IkBa stabilization activation: at 57.1 µM (top of the series), scaled: untreated 0%, proteasome inhibitor 100% unless noted
# Procedure, shortened: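 In this assay, an IκBα–CBG68 fusion accumulates when IKK-driven degradation is blocked; native CBR normalizes for cell number. OCI-Ly3 cells were treated 4 h with compound and doxycycline, then green and red light read after Chroma-Glo addition.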
# Potency is the fitted concentration of half-maximal effect.
Compound,Potency,IkBa stabilization activation
COc1ccccc1CNC(=O)CCn1c(=O)c2ccccc2n(CC(=O)Nc2ccc(Br)cc2F)c1=O,inconclusive: 15.8 µM,–
Cc1ccc(O)c(NC(=O)c2noc3c2CCCC3)c1,–,inconclusive: 9.6% [signal inhibitor]
CCOC(=O)N1CCN(C(=O)CN(c2cccc(Cl)c2)S(=O)(=O)c2ccccc2)CC1,–,inconclusive: 2% [signal inhibitor]
CCCN(C(=O)c1cc2c(=O)oc3ccccc3c2s1)c1cccc(Cl)c1,–,inconclusive: 10% [signal inhibitor]
O=C(Nc1ccccc1)N(Cc1cccs1)c1ccc(F)cc1,–,inactive: -2.11%
CC[C@@H](C)[C@H]1O[C@]2(CC[C@@H]1C)C[C@@H]1C[C@H](C/C=C(/C)[C@H](O[C@@H]3C[C@H](OC)[C@H](O[C@@H]4C[C@H](OC)[C@@H](O)[C@H](C)O4)[C@H](C)O3)[C@@H](C)/C=C\C=C3CO[C@@H]4[C@H](O)C(C)=C[C@@H](C(=O)O1)[C@]34O)O2 (tested in a mixture with another compound),–,inconclusive: 1.63% [signal inhibitor]
COc1cccc(CNC(=O)c2cc(S(=O)(=O)N3CCCCCC3)cn2C)c1,–,inconclusive: 0.0777% [signal inhibitor]
CCOC(=O)c1sc(N2C(=O)c3oc4ccc(C)cc4c(=O)c3C2c2ccccc2F)nc1C (stereo unspecified),–,inactive: 1.42%
CCc1cccc(NS(=O)(=O)c2ccc3c(c2)n(C)c(=O)c(=O)n3C)c1,–,inconclusive: -1.81% [signal inhibitor]
COc1ccccc1-c1ccc(NC2CCCCC2)nn1,–,inactive: 9.62%
CCCCC(=O)OCc1cc(=O)n2nc(C3CCCCC3)sc2n1,–,inactive: 0.761%
CCC1CN(C(=O)Nc2cc(C)ccc2OC)c2cc(Cl)ccc2O1 (stereo unspecified),–,inconclusive: 1.95% [signal inhibitor]
CC(C)Nc1nc(NC(C)C)nc(N(C)C(N)=O)n1,–,inactive: -0.359%
COC(=O)c1ccc(NC(=O)CC2Nc3cc(C)c(C)cc3NC2=O)cc1 (stereo unspecified),–,inconclusive: 8.32% [signal inhibitor]
COc1ccccc1NCc1cccn1-c1nnc(N2CCCCCC2)s1,–,inconclusive: -0.918% [signal inhibitor]
Cc1cc(C)n(-c2nc3ccccc3nc2Nc2ccc(Cl)c(Cl)c2)n1,–,inconclusive: 18.1% [signal inhibitor]
CCOc1ccc(S(=O)(=O)Nc2ccc3oc(C)c(C(=O)OC(C)C)c3c2)cc1,–,inconclusive: -3.83% [signal inhibitor]
COC(=O)c1ccccc1NC(=O)c1sc(N)nc1C,–,inactive: -2.28%
COc1cccc(-c2nnc(SCC(=O)N3CCCc4ccccc43)o2)c1,–,inconclusive: 5.76% [signal inhibitor]
Cc1cccc(OCC(=O)Nc2c(C(=O)N3CCN(c4ccccc4F)CC3)oc3ccccc23)c1,–,inconclusive: -0.944% [signal inhibitor]
Cc1ccc2c(c1)-c1onc(C(=O)N3CCN(c4ccc(Cl)cc4)CC3)c1CO2,–,inconclusive: -1.93% [signal inhibitor]
CCCC(=O)C1=C(SCC)CC(C)(C)C(C(=O)OC)C1=O (stereo unspecified),–,inactive: -1.68%
O=c1nc(-c2ccccc2)c2ccccc2[nH]1,–,inactive: -2.25%
COc1ccccc1CNC(=O)CCn1nc(C)c2c(C)n(-c3ccccc3)nc2c1=O,–,inactive: 2.38%

Compound,Potency,IkBa stabilization activation
CNC(=O)c1c(NC(=O)c2nc3ccccc3s2)sc2c1CCC2,"inconclusive: 31.6 µM [rising, partial curve]",–
Cn1c(=O)n(C)c2cc(C(=O)Nc3ccc4c(c3)OCO4)ccc21,"inconclusive: 15.8 µM [rising, partial curve]",–
O=S(=O)(c1ccccc1)c1nnn2c1nc(NCc1ccc(F)cc1)c1sccc12,–,inactive: -1.72%
O=C(O)C[C@H](S)C(=O)O,–,"inactive: -0.546% [at 11.4 µM, scaled: untreated 0%, proteasome inhibitor 100%]"
Brc1ccc(-c2nc3ccccn3c2Nc2ccc3c(c2)OCCO3)o1,–,inconclusive: 6.9% [signal inhibitor]
CCCCN(CC)C(=O)CSc1nc2n[nH]c(C)c2c(=N)n1-c1cccc(OC)c1,–,inactive: 0.0548%
Cc1oc(-c2ccc(Cl)cc2)nc1CS(=O)CC(=O)N1CCN(c2cccc(C(F)(F)F)c2)CC1 (stereo unspecified),–,inactive: -6.03%
CSC1=NC2(CCN(C(=O)NC3CCCCC3)CC2)N=C1c1ccc(C)cc1,–,inconclusive: -1.06% [signal inhibitor]
CCCn1nnnc1SCC(=O)NCc1cccs1,–,inactive: 0.704%
Cc1cc(F)ccc1NC(=O)CCS(=O)(=O)c1ccc2c(c1)CC(C)N2C(=O)C1CC1 (stereo unspecified),–,inactive: 0.445%
NC(=O)C1CCN(C(=O)c2cccc(NC(=O)c3nsc4ccccc34)c2)CC1,–,inactive: -1.38%
O=C(C1COc2ccccc2O1)N1CCN(c2nc3ccc(F)cc3s2)CC1 (stereo unspecified),–,inconclusive: -5.32% [signal inhibitor]
O=C(c1cccs1)N(C(=O)c1cccs1)c1ccccn1,–,inconclusive: 12.4% [signal inhibitor]
Cn1c(=O)c2c(nc(SCC(=O)Nc3ccccc3)n2Cc2ccccc2F)n(C)c1=O,inconclusive: 7.94 µM [signal inhibitor],–
CCN(CC)S(=O)(=O)c1nnc(NC(=O)COc2ccccc2F)s1,–,inconclusive: 1.41% [signal inhibitor]
CCc1c(CN2CCN(c3cccc(C)c3C)CC2)csc1C,–,inactive: -0.353%
Fc1ccc(CNc2ncnc3onc(-c4ccc(F)cc4)c23)cc1,–,inconclusive: -1.62% [signal inhibitor]
CCc1cccc(C)c1Nc1c(-c2ccccc2)nc2sccn12,–,inconclusive: -3.27% [signal inhibitor]
O=C(C1COc2ccccc2O1)N(Cc1cccnc1)c1nc2ccc(Cl)cc2s1 (stereo unspecified),–,inconclusive: -0.78% [signal inhibitor]
N#Cc1nc(Cc2cccc3ccccc23)oc1NCCN1CCCCC1,"inconclusive: 1.58 µM [signal inhibitor, partial curve]",–
COc1ccc(OC)c(CNC(=O)c2c3c(nc4ccccc24)C(=O)N(C2CCCCC2)C3)c1,–,inconclusive: -1.12% [signal inhibitor]
Cc1nc2cnc(Nc3ccccc3)nc2n(C)c1=O,–,"inactive: 1.82% [at 11.4 µM, scaled: untreated 0%, proteasome inhibitor 100%]"
N#Cc1cccc(-c2nc(NCc3cccs3)c3ccccc3n2)c1,–,"inactive: 1.45% [at 11.4 µM, scaled: untreated 0%, proteasome inhibitor 100%]"
O=C(Nc1ccc(O)cc1C(=O)O)c1cccc(Br)c1,"inconclusive: 1 µM [signal inhibitor, partial curve]",–

Compound,Potency,IkBa stabilization activation
CCOC(=O)c1c(C)[nH]c(C)c1S(=O)(=O)N1CCC(C(=O)N2CCN(c3cccc(Cl)c3)CC2)CC1,–,inconclusive: 1.16% [signal inhibitor]
Cc1cccc(N(C)C(=O)CCS(=O)(=O)c2ccc3c(c2)oc(=O)n3C)c1,–,inconclusive: -0.6% [signal inhibitor]
COc1ccc(OCC(=O)NC2CC(=O)N(c3cccc(OC)c3)C2)cc1 (stereo unspecified),–,inconclusive: -0.499% [signal activator]
Cc1ccccc1Cn1c(=N)n(CC(O)c2ccco2)c2ccccc21 (stereo unspecified),–,inactive: 1.39%
CCCN(CCC)CC(O)Cn1cc(/C=C/C(=O)c2ccc(C)cc2)c2ccccc21 (stereo unspecified),–,inconclusive: 2.14% [signal inhibitor]
c1coc(CNc2nc3sc4c(c3c3ncnn23)CCCC4)c1,–,inactive: -2.87%
CCSCCCC(=O)O,–,"inactive: 0.359% [at 11.4 µM, scaled: untreated 0%, proteasome inhibitor 100%]"
COc1ccc(NC(=O)CN2CCN(Cc3ccc(F)cc3)S2(=O)=O)cc1Cl,–,inconclusive: -1.42% [signal inhibitor]
CC(c1ccco1)N(C(=O)c1cccs1)c1ccccn1 (stereo unspecified),–,inactive: 0.674%
COc1ccc(NC(=O)c2cc(S(=O)(=O)N3CCCCCC3)cn2C)c(OC)c1,–,inconclusive: 0.302% [signal inhibitor]
Cc1ccccc1C(=O)NC1(C(F)(F)F)N=C(c2ccccc2)N(C2CCCCC2)C1=O (stereo unspecified),–,inconclusive: 1.53% [signal inhibitor]
CC(C)C(=O)Nc1ccccc1OCc1cc(=O)n2ccccc2n1,–,inactive: -0.146%
CCC(Oc1ccccc1F)C(=O)N1CCC(c2nc3ccccc3s2)CC1 (stereo unspecified),–,inconclusive: 1.78% [signal inhibitor]
Cc1ccc(C(CC(=O)c2ccco2)SCCO)cc1 (stereo unspecified),–,inconclusive: 9.85% [signal inhibitor]
COc1ccc(Cl)cc1NC(=O)C1CCCN(c2ncnc3onc(C)c23)C1 (stereo unspecified),–,inconclusive: 2.1% [signal inhibitor]
C=CCNC(=O)c1ccc(OC)cc1OC,–,inactive: -2.36%
COc1ccccc1CCNC(=O)C1CCN(c2nnc(-n3cccc3CNc3ccc(C)cc3)s2)CC1,–,inconclusive: 1.21% [signal inhibitor]
O=C(O)C1CCCCC1C(=O)OCCCCOC(=O)C1CCCCC1C(=O)O (stereo unspecified),–,inactive: -1.45%
COc1ccc(CC(=O)Nc2cccc(C(=O)O)c2C)cc1,–,inactive: 0.912%
O=C(CSc1nnc(-c2ccc(Br)o2)n1Cc1ccccc1)c1ccccc1F,–,inactive: 1%
COc1ccc(N2CCN(c3csc4ccc(Cl)cc4c3=O)CC2)cc1,–,inconclusive: 0.658% [signal inhibitor]
COc1ccc(S(=O)(=O)Nc2ccccc2C(=O)NCc2ccco2)cc1Br,–,inconclusive: 1.91% [signal inhibitor]
O=C(O)c1ccc2nc(-c3cc4cccc(O)c4oc3=O)[nH]c2c1,"inconclusive: 3.16 µM [signal inhibitor, full curve]",–
